Experimental data: PubChem BioAssay AID686970 (National Center for Advancing Translational Sciences (NCATS), 2013)
The campaign covered roughly 360,000 compounds. About 6,000 (1.7%) were called active. The shares of active, inactive and inconclusive entries below differ from those in the screen. The call rests on the fitted dose curve; in most records, active means well fitted cell-killing curve with a large enough effect; inconclusive means small, poorly fitted or top-dose-only effect, or effect the other way; inactive means flat fitted curve, though single readings scatter. Potencies of inconclusive entries are left out as doubtful fits.

Test: qHTS for induction of synthetic lethality in tumor cells producing 2HG: qHTS for the HT-1080-NT fibrosarcoma cell line;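 further: NT is the 2HG producing partner of a matched IDH1 knockdown line; nearly all actives have a fitted effect of over 55% in size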;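 on activity, negative = less viability: 0% = DMSO-treated cells and -100% = media-only wells without cells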
Conditions: HT-1080-NT fibrosarcoma viability, CellTiter-Glo ATP luminescence, 48 h; activity, negative = less viability: at 46.1 µM (top of the series) unless noted
Method in brief: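 HT-1080-NT fibrosarcoma cells (2HG-overproducing), 750 cells/well in RPMI with 5% FBS, dosed after 2 h and incubated 48 h at 37C. CellTiter-Glo luminescence normalized to DMSO and no-cell wells; concentration-response curves fitted and classed.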
Potency means the concentration at half of the fitted maximal effect; tags describe the fitted curve by direction and shape.

SMILES | Potency | activity, negative = less viability
CC(=O)Oc1ccc(Cn2c(C)c(C(=O)NCc3ccccc3C(F)(F)F)sc2=O)cc1 | inconclusive [cytotoxic, partial curve, poor fit] | 
CC(=O)c1ccc2c(c1)CC1(C2)Cc2cc3c(cc2C1)C(=O)CC3 (stereo not given) | inconclusive [cytotoxic, partial curve] | 
COC(=O)c1cc(C(=O)OCC(=O)N2c3ccccc3NC(=O)C2(C)C)cc([N+](=O)[O-])c1 |  | inactive: 0.191%
CN(C)Cc1csc(NC(=O)Nc2cccc(C(F)(F)F)c2)n1 | inconclusive [cytotoxic, single point] | 
CCOC(=O)C1=C(CC)OC(N)=C(C#N)C1c1cccs1 (stereo not given) | inconclusive [cytotoxic, single point] | 
COc1ccc(OCCCC(=O)Nc2nc(C)c(C(C)=O)s2)cc1 |  | inactive: -16.3%
CN(C)c1ccc(C(=O)c2ccccc2C(=O)O)cc1[N+](=O)[O-] |  | inactive: 0%
COc1cc(/C=N/NC(=O)c2cc(-c3cccc(OC(C)C)c3)nc3ccccc23)ccc1O | inconclusive [cytotoxic, partial curve] | 
O=C(c1ccccc1)n1c(=O)c(F)cn(COCCBr)c1=O |  | inactive: 4.98%
C=C1C(=O)C23CCC4C(C)(C(=O)OC)CCCC4(C)C2CCC1(O)C3 (stereo not given) | active: 9.2 µM | 
Cc1c(C)n(C)c2ccc(C(=O)NCCCN3CCN(c4ccccc4F)CC3)cc12 | inconclusive [cytotoxic, single point] | 
Cc1cccnc1Nc1nc(-c2ccccn2)cs1 | active: 1.3 µM | 
O=C(NNC(=S)NCc1ccccc1)c1cccnc1 | inconclusive [rising, partial curve] | 
O=C(Cn1c(=O)oc2ccccc21)Nc1ccccc1Cl |  | inactive: 3.67%
CCc1nc2c(OCC(=O)C(C)(C)C)cccn2c1N(C=O)CC(=O)N(C)C |  | inactive: 16.3%
COc1ccc(NC(=O)Cc2nnc(SCC(=O)NC3CCCCC3C)n2C)cc1 (stereo not given) |  | inactive: -1.33%
COc1ccc(C)cc1Nc1c2c(nc3ccccc13)CCC2 | inconclusive [cytotoxic, full curve, poor fit] | 
Cc1ccc(C)c(NC(=S)NNC(=O)c2sccc2C)c1 | active: 8.91 µM | 
CC(=O)c1ccc(C(=O)Nc2nnc(-c3ccc(Cl)cc3)o2)cc1 | inconclusive [cytotoxic, partial curve, poor fit] | 
COc1ccc(S(=O)(=O)N2CCN(c3nc(-c4cccs4)nc4ccccc34)CC2)cc1 |  | inactive: 0.86%
Cc1ccc2cc(CN(CC3CCCO3)C(=S)Nc3ccccc3)c(=O)[nH]c2c1C (stereo not given) | inconclusive [cytotoxic, partial curve] | 
CC1Sc2ccc(S(=O)(=O)N3CCC(C(=O)Nc4cccc(Cl)c4)CC3)cc2NC1=O (stereo not given) | inconclusive [cytotoxic, single point] | 
Cc1ccc(N(Cc2cc3ccccc3[nH]c2=O)C(=O)c2cccs2)cc1C |  | inactive: 13.9%
CCOC(=O)c1sc(=NC(=O)c2ccc(OC(C)C)cc2)n(C)c1C | inconclusive [rising, partial curve, poor fit] | 
CCCCOCCCNc1ncnc2c1[nH]c1ccccc12 | active: 12.6 µM | 

SMILES | Potency | activity, negative = less viability
COCCN(C(=O)Cc1ccc(S(=O)(=O)N2CCOCC2)s1)c1c(N)n(CC(C)C)c(=O)[nH]c1=O |  | inactive: 10.6%
COc1ccc(C(=O)c2[nH]c(N)c(C(=O)NCCc3c[nH]c4ccccc34)c2-c2ccc(Br)cc2)cc1 | inconclusive [cytotoxic, single point] | 
O=C(NCCCN1CCOCC1)c1sc2cc([N+](=O)[O-])ccc2c1Cl |  | inactive: -11.6%
Cc1[nH]c2ccccc2c1C(=O)c1cc(Cc2ccccc2)sc1N | inconclusive [cytotoxic, single point] | 
CC1=C(C(=O)c2ccccc2)C(c2ccc(OC(F)F)cc2)NC(=S)N1 (stereo not given) | inconclusive [cytotoxic, partial curve] | 
O=C(c1cc(COc2ccc(F)cc2F)on1)N1CC[C@@H]2CCCC[C@H]2C1 |  | inactive: 0.722%
CCN1CCN(CCNC(=O)c2ccc(/C=C3/Sc4ccccc4N(Cc4cccc(C)c4)C3=O)cc2)CC1 | active: 23.1 µM | 
CCOc1cc(/C=C2\CN(C)C/C(=C\c3ccc(O)c(OCC)c3)C2=O)ccc1O | active: 4.11 µM | 
Cn1nc(C(C)(C)C)cc1C(=O)N1CCCC(C)(C(=O)NS(=O)(=O)C2CC2)C1 (stereo not given) |  | inconclusive: 33.9%
COc1ccc(OC)c(NC(=O)c2cc(-c3ccc(F)cc3OC(C)C)n[nH]2)c1 |  | inactive: -4.61%
CCOc1ccc(NC(=S)Nc2cccc3cnccc23)cc1 |  | inactive: -4.67%
COc1ccccc1CN(C)C(=O)c1cc(-c2cccs2)nc2ccccc12 | inconclusive [cytotoxic, single point] | 
COc1ccc(C(N)c2csc(Nc3ccc(S(C)(=O)=O)cc3)n2)cc1 (stereo not given) |  | inactive: -17.5%
Cc1c(NC(=O)COC(=O)/C=C/c2cccc(Cl)c2)c(=O)n(-c2ccccc2)n1C |  | inactive: 6.12%
COc1ccccc1NC(=O)C1CCCN(S(=O)(=O)c2ccc3c(c2)CC(C)N3C(C)=O)C1 (stereo not given) |  | inactive: -0.545%
CN(C)/C=C/C(=O)c1nnn(C2CCCCC2)c1NC1CCCCC1 | inconclusive [cytotoxic, single point] | 
O=C(NCc1cccnc1)c1cc(C2CCCCN2C(=O)OCCF)on1 (stereo not given) |  | inconclusive: 17.1%
O=c1[nH]c2cc3ccccc3cc2nc1-c1nnnn1C1CCCC1 | inconclusive [cytotoxic, partial curve] | 
O=C(c1ccc(F)cc1)c1cnc(Nc2ccccc2)s1 |  | inconclusive: 32.7%
CC1(C)N=C(N)N=C(N)N1c1cccc(C#N)c1 | inconclusive [cytotoxic, full curve] | 
COc1ccc(C2CC(c3ccccc3)=NN2c2ccc(N)cc2)cc1 (stereo not given) | inconclusive [cytotoxic, single point] | 
Cc1ccc(COn2c(-c3ccc(Cl)cc3Cl)nc3ncccc32)cc1 | inconclusive [cytotoxic, single point] | 
COc1ccc(CNC(=O)CSc2n[nH]c(C)c2[N+](=O)[O-])cc1 |  | inactive: 9%
CN1CCN(NC(=O)c2cc(Br)ccc2Cl)CC1 | inconclusive [rising, single point] | 
O=C(NC(Nc1nc2ccc([N+](=O)[O-])cc2s1)(C(F)(F)F)C(F)(F)F)c1cccnc1 | active: 9.2 µM | 

SMILES | Potency | activity, negative = less viability
CC1=CC(=NOC(=O)/C=C/c2ccccc2)C=C(C)C1=O | inconclusive [cytotoxic, single point] | 
CC(O)(c1cccc(F)c1)c1nc(-c2cc3ccccc3o2)cs1 (stereo not given) | inconclusive [cytotoxic, single point] | 
COc1ccccc1C(=O)Nc1ccc2c(c1)nc1n2CCSC1 | inconclusive [cytotoxic, single point] | 
CC(CC(=O)c1ccccc1)=NCC(O)CN=C(C)CC(=O)c1ccccc1 (stereo not given) |  | inactive: -1.86%
COc1ccccc1CNC(=O)C1CCN(c2ncnc3c2nc2n3CCCCC2)CC1 |  | inactive: -2.84%
CN(C)S(=O)(=O)c1cccc(NC(=O)c2cc3c(cc2Cl)N2CCCCCC2=NS3(=O)=O)c1 |  | inconclusive: -18.5% [cytotoxic]
C/C(=N\NC(=S)Nc1ccc(F)cc1)C1CC1 | active: 8.91 µM | 
CCCCNC(=O)C1c2ccccc2OCC(=O)N1CCOC (stereo not given) |  | inactive: 28.7%
COc1ccccc1CNC(=O)CN1C(=O)c2ccc([N+](=O)[O-])cc2C1=O |  | inactive: 11.2%
CCCCCCCCCCCCCCCC[N+](C)(C)CC | active: 16.4 µM | 
CCc1ccc2c(c1)C1(NN=C(c3ccccc3)S1)C(=O)N2 (stereo not given) | inconclusive [cytotoxic, partial curve, poor fit] | 
CC1(Br)C(Sc2ccccc2[N+](=O)[O-])=Nc2ccccc21 (stereo not given) | active: 6.51 µM | 
COc1ccc(S(=O)(=O)Nc2cc(Cl)ccc2OC)cc1 | active: 6.51 µM | 
COc1ccc(CNCCc2ccc(Cl)cc2)cc1OCc1ccccc1 | inconclusive [cytotoxic, single point] | 
O=C(Oc1cc(=O)oc2c1c(=O)n1c3c(cccc23)CC1)c1ccc(F)cc1 |  | inactive: -0.442%
CCOc1ccc(CNC(=O)CCCn2nc(C)c3c(C)n(-c4ccc(C)cc4)nc3c2=O)cc1 |  | inactive: 6.2%
Cc1cccc(C(=O)OCC(=O)NCCN2C(=O)CSC2=O)c1[N+](=O)[O-] | inconclusive [rising, single point] | 
CN(CC(=O)NC(=O)NCc1ccco1)Cc1nc2ccccc2c(=O)[nH]1 | inconclusive [cytotoxic, single point] | 
CC(C)(C)OC(=O)C[C@H]1C/C=C\C[C@@H](CC(=O)N(CCO)Cc2ccccc2)C(=O)NC[C@@H](c2ccccc2)OC1=O |  | inactive: -0.085%
O=C(CNc1ccccc1F)Nc1cccc(S(=O)(=O)N2CCCCC2)c1 |  | inactive: -7.26%
CC(C)c1ccc(-c2nn(-c3ccccc3)cc2C2C(C#N)=C(N)OC3=C2C(=O)CC(C)(C)C3)cc1 (stereo not given) | inconclusive [cytotoxic, single point] | 
COc1cc(CN2CCN(c3cccc(Cl)c3)CC2)cc(OC)c1OC | active: 8.91 µM | 
COc1ccccc1CN1C[C@@H]2C[C@@H](c3ccc4nsnc4c3)N3CCC[C@@]23C1=O |  | inactive: -18.9%
Cc1oc(-c2ccc(Cl)cc2)nc1CN1CCC(C(=O)NCCCN2CCOCC2)CC1 | active: 22.4 µM | 
Cc1c(C(=O)N2CCCc3ccccc32)sc2nc(-c3ccccc3)cn12 | inconclusive [rising, single point] | 
